Experimental data: the supplement of paper PMC3334620
Whole data set: some 33,000 sequences, median “E-score (-0.5 to 0.5)” near -0.011, cut for the highest 2% near 0.28. Some of the results follow.

target: T1, Gcr1 (UniProt P07261); assay: PBM E-score (8-mer binding enrichment) (E-score (-0.5 to 0.5)); higher = stronger / more preferred TF binding; most listed sequences are background and not binding sites; settings: protein concentration: 100 nM; construct: GST-full length
T1 sequence: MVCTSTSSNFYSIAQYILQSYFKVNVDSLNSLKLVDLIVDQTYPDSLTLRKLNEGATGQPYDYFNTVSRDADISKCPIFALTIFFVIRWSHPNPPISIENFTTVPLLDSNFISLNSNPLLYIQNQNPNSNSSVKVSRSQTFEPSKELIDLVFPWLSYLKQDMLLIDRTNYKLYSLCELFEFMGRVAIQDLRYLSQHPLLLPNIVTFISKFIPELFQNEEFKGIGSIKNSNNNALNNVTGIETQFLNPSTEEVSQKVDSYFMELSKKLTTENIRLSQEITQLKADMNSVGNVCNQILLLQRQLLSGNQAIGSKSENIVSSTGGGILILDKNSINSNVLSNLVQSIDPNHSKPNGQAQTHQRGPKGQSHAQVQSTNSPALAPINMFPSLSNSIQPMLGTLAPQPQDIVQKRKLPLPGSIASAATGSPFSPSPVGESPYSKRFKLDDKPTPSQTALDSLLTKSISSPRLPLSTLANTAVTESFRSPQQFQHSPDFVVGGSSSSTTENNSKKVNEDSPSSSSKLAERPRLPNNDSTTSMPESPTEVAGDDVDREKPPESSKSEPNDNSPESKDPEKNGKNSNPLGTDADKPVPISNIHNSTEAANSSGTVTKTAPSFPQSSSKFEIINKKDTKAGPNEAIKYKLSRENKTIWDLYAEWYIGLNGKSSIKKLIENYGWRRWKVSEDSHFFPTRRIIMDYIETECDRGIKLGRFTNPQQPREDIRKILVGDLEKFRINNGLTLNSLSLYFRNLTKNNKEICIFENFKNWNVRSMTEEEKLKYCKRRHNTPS
Method in brief: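 Yeast transcription factors carrying a GST tag, as full-length proteins or DNA-binding domains, were produced by PURExpress in vitro transcription/translation. About 100-200 nM protein was applied to universal all-10-mer Agilent arrays, double-stranded by primer extension on fresh or once-stripped slides. Bound protein was detected with fluorescent anti-GST, and scans were normalised with masliner. The Universal PBM Analysis Suite gave each ungapped eight-base word, pooled with its reverse complement, an E-score, a modified Wilcoxon-Mann-Whitney statistic.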

Sequence	PBM E-score
ATAAGAGA	0.215
GTGAAATA	-0.029
ATAAAACC	-0.036
CTACGCGA	-0.115
AACTTCAA	0.128
ATACATAG	0.0321
CATGACAG	-0.142
CATCGCAA	-0.0571
ACACGACT	0.0276
GGACAACA	-0.253
ACCTTCGA	-0.345
CAGCTTAA	-0.0042
GAACCTGA	0.113
ACCCCTCA	-0.0444
GGAAAGTA	0.0705
CCCGTCAG	-0.0643
AACTGTGA	0.0857
TGCGCCCA	0.0933
TGACAAAA	0.101
AGATACAT	-0.00532
TCACGGGA	-0.00667
GATCATAA	0.0567
AAACATAC	-0.157
AGTCCTAC	-0.205
CATTAATC	-0.0468

Sequence	PBM E-score
GGAGGTCA	-0.141
AGGACCAT	-0.245
ATGCGATC	-0.0896
CACGACTG	-0.111
CCTACGGC	-0.146
TCGCGGCA	-0.0609
ACCGTTGC	-0.205
AGGTTGCG	0.136
TACGGTCA	-0.271
CGAGCTAC	0.121
CATAAGAA	0.218
GGAGCCTA	0.22
AAGTGCGC	0.0149
GTATAAAC	0.148
GAGGCGCA	0.0503
CCCAAATA	0.213
GAAGACCC	-0.0599
TAAATGGA	0.121
AGTATGGG	-0.0166
AAATAGGC	0.09
ATGTCAAG	-0.0991
CTAATAGC	0.00122
CGACTCCC	0.119
ACCATACT	0.169
AAAGATGC	0.0158

Sequence	PBM E-score
ATACCGAT	0.134
TAAGAAGA	0.243
AATTATAA	0.104
TACCTTGA	-0.0314
ATGAAAGG	0.0366
GCGAACCA	-0.0659
CCACGCAG	-0.141
ACTATAGG	-0.0743
CAAAGTAG	-0.113
AATCTCCA	0.0534
CGGGGGAC	-0.159
CATTGGAA	0.106
ACCATCAG	-0.169
CCCTGAGC	0.00173
ACTTCACC	-0.0786
AGCTTATA	-0.151
GGGCGTAA	-0.0371
CTGGCCTC	-0.133
CCTCTAAG	0.116
CCTAAGTC	-0.00559
AGTGAAAT	-0.0234
CCTGAACA	0.0287
GAGCCCAC	0.19
ACGGTGGA	-0.108
GACTTCTA	0.053

Sequence	PBM E-score
AGGCAGAC	-0.0945
ACTCGACT	0.0481
AAACCCGA	0.19
ACCTGCTG	-0.0246
AAGGAAGA	-0.00011
CCCATGTA	0.0594
CGCGAGAC	-0.152
AGGCATGC	0.0495
GTGATTGA	0.0896
CGCAAACC	-0.179
GGTTGAAA	-0.0848
AAGTGTAC	-0.186
AACTTCAG	-0.114
AGGAGTTC	-0.0621
CCATATTA	0.157
AAATGCAC	-0.131
TATGCCCA	-0.14
ATCAAGTG	0.00353
TAGTGTAA	-0.12
GGCCTCTA	0.0531
GAGATAGA	-0.108
TCCATGGA	0.0685
CCTACCTC	-0.0147
TACTTCAA	-0.113
CTACTGAA	0.0224

Sequence	PBM E-score
CGGGCAAG	-0.127
CCCCCGTA	-0.0842
GTCGGGAA	0.0614
ATTGTAGG	0.0792
CCCTGGAG	-0.0212
AGGGGACA	-0.00061
CCAAATTC	0.126
ATGACCCA	-0.286
CCCATAGC	-0.16
CTATATTA	0.307
CGTTCATC	-0.119
ATTACAGA	0.053
AAGAAGTG	0.108
ATACGTAC	-0.00136
AGAGTTGG	0.0173
GGTGGCAA	-0.082
CGTCTGAG	-0.0367
ATAATTGC	-0.00448
CAACGTAA	0.02
CGATAAGA	0.0795
CATGTCTC	-0.0982
CAAGGTAC	-0.102
AATAACAA	0.0356
GAAGGCCA	-0.0186
CACTACTG	-0.102

Sequence	PBM E-score
AAGAAAAG	-0.119
TCGTACAA	-0.0582
CCAAGCCA	-0.155
CCAGCTCA	-0.229
ACTTTGTC	-0.0253
CACTACCG	0.15
CCGGCTGA	-0.138
GGGGCGTA	-0.0317
GGTTCAAC	-0.0678
AAGATAGT	-0.0695
GAACACGA	0.108
ACAAGCCG	-0.0157
TCGACACA	0.0474
ATAGAGTA	-0.22
GGTGCGAA	0.201
ACCATTCA	-0.118
ACAGCCGC	-0.0946
CAACGCGG	0.0899
ATTGACCG	-0.0728
CCCAGATA	0.258
ATCTTATA	0.0687
CGCCCGAG	0.0978
ATAACATA	0.0609
ACTGCGTA	0.062
CTGGGTAA	-0.0479

Sequence	PBM E-score
ACTCCTAA	0.165
TCCACTAA	0.418
CGCGCAAA	0.0682
AAGGGCCA	-0.263
GATCATGA	-0.078
CTCATCAC	0.0152
GCTGCATA	-0.115
CACCTTGC	-0.0454
TGGCTACA	0.065
AAGGGAGA	-0.266
CAAACAAA	0.0175
AAGTGCTA	-0.0529
GGTTGGAC	-0.111
CGACGGTC	-0.344
CAAACAGC	-0.0108
AGCGTCGA	0.0269
AATGGCCA	-0.157
AGCTTTCA	-0.0144
ACCCCGAT	0.0265
AATCCGCA	0.224
AAGGTATC	0.158
CTGGCGTA	-0.138
